Measurements published in PubChem BioAssay AID1466 (National Center for Advancing Translational Sciences (NCATS), 2008).
“And” between values parts separate entries of the source, which are not always exact repeats. Identical values can stand only once. Screen size: about 200,000 compounds; about 10 (0.005%) were called active. Inconclusive results, whose numbers are uncertain, are shown with a selection of clear calls. The call rests on the fitted dose curve; in most records, active means well fitted inhibition curve with a large enough effect; inconclusive means small, poorly fitted or top-dose-only effect, or effect the other way, or another doubt; inactive means no such curve, though single readings can be large or run the other way. Potencies of inconclusive entries are doubtful fits and often do not repeat.

Molecular target: Lysosomal alpha-glucosidase (Homo sapiens) (UniProt P10253)
Experiment: qHTS Assay for Inhibitors of Human alpha-Glucosidase as a Potential Chaperone Treatment of Pompe Disease;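 on activity change, negative = inhibition: plate controls were uninhibited enzyme wells for no effect and no-enzyme background for full effect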
Details: purified human GAA, 4-MU-alpha-glucoside fluorescence; activity change, negative = inhibition: at 76.9 µM (top of the series) unless noted
Procedure, shortened: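 Human enzyme at 4 nM with 400 uM 4-methylumbelliferyl-alpha-D-pyranoside, citrate/phosphate buffer pH 5.0, 0.005% Tween-20, 20 min at room temperature. Compounds up to 77 uM. 4-MU fluorescence (Ex 365/Em 440) read after NaOH/glycine stop; AC50 from Hill fit.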
Potency means the concentration at half of the fitted maximal effect; tags describe the fitted curve by direction and shape.

Row | Compound | Potency | activity change, negative = inhibition
1 | O=c1[nH]c(CN2CC=C(c3ccccc3)CC2)nc2scc(-c3cccs3)c12 | inconclusive: 7.08 µM [inhibitor, single point] | –
2 | O=C1NC(=O)N(c2ccccc2)C(=O)/C1=C/c1ccc([N+](=O)[O-])s1 | – | inconclusive: -16.9% [inhibitor]
3 | Nc1c(C(=O)OCc2ccccc2)c2nc3ccccc3nc2n1Cc1cccs1 | inconclusive: 35.5 µM [activator, single point] | –
4 | CC(=O)N1CCC2(CC1)CC(=O)c1cc(OCC(=O)N3CCC4(CC3)OCCO4)ccc1O2 | inconclusive: 31.6 µM [activator, partial curve] | –
5 | O=C1/C(=C/c2ccc(F)cc2)Oc2cc(OC(=O)N3CCOCC3)ccc21 | inconclusive: 39.8 µM [inhibitor, single point] | –
6 | OCC#CC[N+]1(CC#Cc2ccccc2)CCCC1 | – | inconclusive: 16.2% [activator]
7 | CCCCCCCSc1cc(OC)c(CCN(C)C)cc1OC | inconclusive: 20 µM [inhibitor, partial curve, poor fit] | –
8 | C=CCn1c(O)c(/C=C/C=Nc2ccccc2)c(=O)[nH]c1=O | inconclusive: 39.8 µM [inhibitor, single point] | –
9 | CCNC(=O)N1c2ccccc2Sc2ccccc21 | inconclusive: 10 µM [inhibitor, single point] | –
10 | C=CCN1C(=O)NC(=O)/C(=C/c2ccc(N(C)C)c(Br)c2)C1=O | inconclusive: 0.631 µM [activator, full curve, poor fit] | –
11 | CC(C)(C)c1cc([N+](=O)[O-])cc(C(C)(C)C)c1O | – | inconclusive: -20% [inhibitor]
12 | NC(N)=NC(=O)c1nc(Cl)c(N)nc1N | inconclusive: 28.2 µM [activator, partial curve] | –
13 | O=C1NC(=O)C(CCc2ccncc2)(CCc2ccncc2)C(=O)N1Cc1ccc(F)cc1 | – | inconclusive: 8.7% [activator]
14 | COc1ccc(OC)c(N2C(=O)NC(=O)/C(=C/c3ccc([N+](=O)[O-])s3)C2=O)c1 | inactive | –
15 | COc1ccc(-n2c(Cc3ccccc3)nc3ccccc3c2=O)cc1 | – | inconclusive: 3.96% [activator]
16 | CCOC(=O)c1c(N)n(CCCOC(=O)c2ccco2)c2nc3ccccc3nc12 | inconclusive: 35.5 µM [activator, partial curve] | –
17 | CC(Cc1ccccc1)[n+]1cc(/N=C(\[O-])Nc2ccccc2)on1 (configuration not stated) | inconclusive: 0.158 µM [inhibitor, full curve, poor fit] | –
18 | CC(C)CNC(=O)c1c(N)n(Cc2ccc3c(c2)OCO3)c2nc3ccccc3nc12 | inconclusive: 28.2 µM [activator, partial curve] | –
19 | Cc1nn(Cc2ccccc2)c(C)c1C(=O)OCC(=O)NCc1ccco1 | inconclusive: 0.178 µM [inhibitor, full curve, poor fit] | –
20 | CC1N(C)c2cc(NC(=O)c3ccco3)c(P(=O)(Nc3ccc([N+](=O)[O-])cc3)N3CCOCC3)cc2C1(C)C (configuration not stated) | inconclusive: 39.8 µM [inhibitor, partial curve] | –
21 | CCCOC(=O)c1c(N)n(Cc2cccs2)c2nc3ccccc3nc12 | inconclusive: 39.8 µM [activator, partial curve] | –

Row | Compound | Potency | activity change, negative = inhibition
22 | c1cncc(CNC2CCCC2)c1 | – | inconclusive: 14.4% [activator]
23 | Cc1cc(NC(=O)CCl)no1 | inconclusive: 2.82 µM [activator, partial curve, poor fit] | –
24 | O=C1CCCC2=C1C(c1cccnc1)Nc1ccccc1N2 (configuration not stated) | inconclusive: 50.1 µM [inhibitor, single point] | –
25 | CC(C)CCOC(=O)c1c(N)n(CC2CCCO2)c2nc3ccccc3nc12 (configuration not stated) | inconclusive: 39.8 µM [activator, partial curve] | –
26 | CCCCOCCCn1c(N)c(C(=O)OCCOC)c2nc3ccccc3nc21 | inactive | –
27 | O=C(c1c[nH]c2ccc(S(=O)(=O)N3CCOCC3)cc2c1=O)N1CCC2(CC1)OCCO2 | inconclusive: 31.6 µM [activator, partial curve] | –
28 | Cc1ccc2c(CN3CC=C(c4ccccc4)CC3)cc(=O)oc2c1C | inconclusive: 8.91 µM [inhibitor, full curve, poor fit] | –
29 | O=c1[nH]c(=S)n(Cc2ccc(F)cc2)c(O)c1/C=N/N1CCCCC1 | – | inconclusive: 23.1% [activator]
30 | C=Cn1ccnc1P(=S)(c1ccc(N(C)C)cc1)c1nccn1C=C | inconclusive: 25.1 µM [inhibitor, single point] | –
31 | Oc1ccccc1/C=N/NP(=S)(c1ccccc1)c1ccccc1 | inactive | –
32 | O=C1CC(N2CC=C(c3ccccc3)CC2)C(=O)N1c1ccc(F)cc1 (configuration not stated) | inconclusive: 44.7 µM [inhibitor, single point] | –
33 | O=C(Cn1nc(-c2ccccc2)ccc1=O)N1CCC2(CC1)OCCO2 | – | inconclusive: -15% [inhibitor]
34 | Oc1cc2c(cc1O)[C@H]1c3ccccc3CN[C@@H]1CC2 | – | inactive: -6.46% [at 15.4 µM]
35 | O=[N+]([O-])c1ccc(N2CCNCC2)cc1Sc1ccccn1 | inconclusive: 28.2 µM [inhibitor, single point] | –
36 | O=C(CCn1c(=O)oc2ccccc21)N1CCN(C(c2ccccc2)c2ccccc2)CC1 | inconclusive: 56.2 µM [inhibitor, single point] | –
37 | CN1c2ccc([N+](=O)[O-])cc2CC2(C(=O)NC(=O)N(c3ccc(Br)cc3)C2=O)C1c1ccccc1 (configuration not stated) | inconclusive: 39.8 µM [inhibitor, partial curve] | –
38 | Cc1cc(C(=O)CS(=O)(=O)c2ccc(F)cc2)cc(C)c1OC(=O)N(C)C | inactive | –
39 | O=c1[nH]c2ccccc2c(=O)n1-c1cccc(Cl)c1 | inconclusive: 0.501 µM [inhibitor, full curve, poor fit] | –
40 | CC(C)OCCCNC(=O)c1c(N)n(CC2CCCO2)c2nc3ccccc3nc12 (configuration not stated) | inconclusive: 39.8 µM [activator, partial curve] | –
41 | CCC(C)NC(=O)c1c(N)n(Cc2ccc3c(c2)OCO3)c2nc3ccccc3nc12 (configuration not stated) | inconclusive: 35.5 µM [activator, partial curve] | –
42 | CC1CN=C(Nc2cccc3ccccc23)S1 (configuration not stated) | inconclusive: 50.1 µM [inhibitor, single point] | –

Row | Compound | Potency | activity change, negative = inhibition
43 | CC1Oc2cc3c(-c4c(O)cc(O)c5c(O)c6c(cc45)OC(C)C(C)C6=O)c(O)cc(O)c3c(O)c2C(=O)C1C (configuration not stated) | inconclusive: 31.6 µM [inhibitor, single point] | –
44 | N#CC1=C(N)Oc2c(c(=O)oc3ccccc23)C1c1ccc(OC(=O)N2CCOCC2)cc1 (configuration not stated) | inconclusive: 35.5 µM [activator, partial curve] | –
45 | Cn1c(=O)oc2cc(S(=O)(=O)N3CCC(C(=O)N4CC=C(c5ccccc5)CC4)CC3)ccc21 | inconclusive: 3.16 µM [inhibitor, partial curve, poor fit] | –
46 | CCOC(=O)c1c(-c2ccc(OC)cc2)oc2ccc(OC(=O)N(C)C)cc12 | inconclusive: 31.6 µM [activator, partial curve] | –
47 | N#CC(C#N)=Cc1ccc(-c2ccccc2F)o1 | – | inconclusive: -21.7% [inhibitor]
48 | Cc1ccc(Cn2nnnc2CN2CCC(n3nnc4cc(C(F)(F)F)ccc43)CC2)cc1 | inconclusive: 44.7 µM [inhibitor, single point] | –
49 | Cn1cc(C(=O)N2CCC3(CC2)OCCO3)c2c3ccccc3n(C)c2c1=O | inconclusive: 31.6 µM [activator, partial curve] | –
50 | Cc1[nH]n(-c2ccccc2)c(=O)c1C(c1ccc([N+](=O)[O-])cc1)c1c(C)[nH]n(-c2ccccc2)c1=O | inconclusive: 3.55 µM [inhibitor, single point] | –
51 | Cc1cccc(N2CCc3c2nc2ccccc2c3N)c1 | inconclusive: 39.8 µM [activator, single point] and inconclusive: 28.2 µM [activator, single point] | –
52 | COc1ccccc1OCC(=O)Nc1ccc(Cl)cc1C(=O)c1ccccc1 | inconclusive: 56.2 µM [inhibitor, single point] | –
53 | CCCCn1c(NC(=O)c2ccco2)c(C(=O)OCC)c2nc3ccccc3nc21 | – | inconclusive: 52.8% [activator]
54 | CC(C)=CCOc1c2occc2cc2ccc(=O)oc12 | inconclusive: 28.2 µM [inhibitor, single point] | –
55 | CC[n+]1c(SC)ccc2cc(OC)ccc21 | inconclusive: 25.1 µM [activator, partial curve] | –
56 | COC(=O)C1=Nc2ccccc2/C1=C\c1c(O)n(-c2ccc(OC)cc2)c(=O)[nH]c1=O | – | inconclusive: -4.32% [inhibitor] [at 15.4 µM]
57 | CCOP(=O)(OCC)C(NC(=O)c1ccc(OC)cc1)C(Cl)(Cl)Cl (configuration not stated) | inactive | –
58 | O=C(C(=O)N1CCOCC1)c1cn(CCCOc2ccccc2)c2ccccc12 | inconclusive: 0.794 µM [inhibitor, single point] | –
59 | Cc1ccccc1-n1c(-c2ccoc2)nc2ccccc2c1=O | inconclusive: 35.5 µM [inhibitor, single point] | –
60 | COc1ccc(Oc2c(C)oc3cc(OC(=O)N4CCOCC4)ccc3c2=O)cc1 | inconclusive: 4.47 µM [inhibitor, partial curve, poor fit] | –
61 | C[C@H]1CCCC(=O)CCC/C=C/c2cc(O)cc(O)c2C(=O)O1 | inconclusive: 50.1 µM [inhibitor, single point] | –
62 | O=C1NC(c2cccnc2)Nc2sc3c(c21)CCCC3 (configuration not stated) | – | inconclusive: 18.2% [activator]
